Measured values: PMC3901001, “Activation-triggered subunit exchange between CaMKII holoenzymes facilitates the spread of kinase activity” (eLife, 2014)

What was measured:
[1] = molecular target: the molecule itself; assay: SEC; gel filtration of the purified, unactivated protein (25 mM Tris pH 8.0, 150 mM KCl, 2 mM TCEP, 10% glycerol)
[2] = molecular target: T1, Calmodulin (from Gallus gallus), Ca2+-bound (Gallus gallus, UniProt P62149); assay: dynamic light scattering; conditions of the mixing experiments, 37°C, 1 hr: CaMKII^T286D with ATP; wild type with Ca2+/CaM and ATP; conditions: both partners purified
T1 construct: calmodulin, Gallus gallus; also called CaM; Ca^2+/CaM; source: expressed using a pET-15b vector, purified as described previously (Putkey and Waxham, 1996)

binding result [2]: binds
B1: full-length human α isoform of CaMKII (CaMKIIα), wild type (enzyme)
chain: not shown
modifications: biotin on the Avitag (BirA); Alexa 488 or Alexa 594 C5-maleimide at Cys 280
notes: Dodecameric holoenzyme; unphosphorylated as purified; also called wild-type CaMKII; wild-type holoenzyme; source: E. coli Tuner (DE-3)pLysS with a plasmid for λ phosphatase, purified (Ni-NTA, Q-FF, gel filtration); not shown: SUMO, N-terminal, cleaved; Avitag, C-terminal, kept
stoichiometry N [1]: 12
